Results: US4975450A, “Antidiarrheal” (Slovenska Akademia Vied, priority 1987, dated 1990)

Tested on: Drosophila melanogaster
Assay: detection of recessive lethal mutations
Settings: 2.5×10^-5 to 2.5×10^-3 M/disc

## CCCCCOc1cccc(NC(=O)O[C@@H]2CCCC[C@H]2N2CCCC2)c1 (relative stereo) [substance of the formula, (±)-trans-2(1-pyrrolidinyl) cyclohexylester of 3-(n)-pentyloxycarbanilic acid]
  mutagenous effects, recessive lethal mutations: no mutagenous effects
